This is one part of the list. The energies were worked out here from pooled read counts, against the library average; single values are noisy.

The target of the assay is T1, Pho4 (S. cerevisiae) (UniProt P07270).
T1 sequence: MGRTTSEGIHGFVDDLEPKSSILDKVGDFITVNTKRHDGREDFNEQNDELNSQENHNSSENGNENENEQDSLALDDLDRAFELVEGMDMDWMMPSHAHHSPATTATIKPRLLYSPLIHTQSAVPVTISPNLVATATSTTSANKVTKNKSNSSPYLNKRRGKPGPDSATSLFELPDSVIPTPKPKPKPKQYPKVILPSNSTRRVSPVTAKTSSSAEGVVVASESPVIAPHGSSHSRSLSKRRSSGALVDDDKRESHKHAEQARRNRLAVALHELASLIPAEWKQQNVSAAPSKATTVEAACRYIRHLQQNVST
The experiment in a line: relative binding free energy (BET-seq); higher = weaker binding. The conditions noted are these: reference: library average.
Consider CTGTTCACGTGTTCTT, for which the “relative binding free energy” value was found to be 0.22 kcal/mol.

As to TGGATCACGTGAGGTC, the “relative binding free energy” value came out at 0.29 kcal/mol.

As to GTAAACACGTGGGCGG, the “relative binding free energy” value turned out to be 0.1 kcal/mol. The result for TGAAACACGTGATTTG reads 0.11 kcal/mol; that for TTCTTCACGTGTTTGG, 0.26 kcal/mol. The value for TTTAACACGTGTTACG was 0.06 kcal/mol; that for TGGGGCACGTGAGCTA was 0.11 kcal/mol; that for GGTGACACGTGAGTTA was 0.34 kcal/mol. The value for CATGACACGTGAGGGT was 0.24 kcal/mol; that for CGTTGCACGTGCGTAT was -0.09 kcal/mol.

Turning to TGTTACACGTGTTTCG, the “relative binding free energy” value came to 0.14 kcal/mol.

As to GTCTTCACGTGAGTCT, the “relative binding free energy” value stood at 0.47 kcal/mol.

For the sequence TGTGGCACGTGTCAAA, the “relative binding free energy” value is -0.07 kcal/mol.

On to AAATTCACGTGAGGTT, for which the “relative binding free energy” value amounted to 0.38 kcal/mol. Regarding TGTGTCACGTGTTAAG, the “relative binding free energy” value came to 0.12 kcal/mol.

AAGGTCACGTGAGATG: the “relative binding free energy” value was 0.41 kcal/mol. The result for GGGGGCACGTGAGAAG reads 0.13 kcal/mol. For CGTAGCACGTGAGGGG, the “relative binding free energy” value amounted to 0.1 kcal/mol.

Consider AGAGGCACGTGTGTAA, for which the “relative binding free energy” value is -0.01 kcal/mol. The result for TTGCTCACGTGTAGTT reads 0.09 kcal/mol; that for TTCTTCACGTGTTTGA, 0.21 kcal/mol; that for TGGGACACGTGGATGC, 0.04 kcal/mol. For ATAACCACGTGTGGTG, the “relative binding free energy” value is -0.08 kcal/mol. In the case of GAATGCACGTGTGTAG, the “relative binding free energy” value stood at 0.15 kcal/mol.

As to GGTAACACGTGGCGAG, the “relative binding free energy” value is 0.12 kcal/mol. The value for TTAGTCACGTGATATC was 0.2 kcal/mol; that for TGGCGCACGTGCGTGA was -0.23 kcal/mol. The value for TAGTACACGTGATGTA was 0.08 kcal/mol. The result for TATAGCACGTGTCAGG reads -0.09 kcal/mol; that for CTGTTCACGTGATAAG, 0.33 kcal/mol. Turning to CGGTCCACGTGTTGGA, the “relative binding free energy” value turned out to be 0.02 kcal/mol. The value for CAGTTCACGTGGTATG was 0.29 kcal/mol; that for ATTGACACGTGTATGA was 0.04 kcal/mol; that for TACTTCACGTGTTATG was 0.06 kcal/mol.

TTGTGCACGTGTCGGA: the “relative binding free energy” value is 0.04 kcal/mol. The value for GGATACACGTGTTATG was 0.13 kcal/mol; that for TTTGCCACGTGTGTGT was -0.14 kcal/mol. For TGAGACACGTGAACGG, the “relative binding free energy” value was 0.29 kcal/mol. The value for GGTGTCACGTGAGTTG was 0.28 kcal/mol; that for TGTGGCACGTGCGCAG was -0.2 kcal/mol.

On to AGTCGCACGTGTGTGC, for which the “relative binding free energy” value is -0.02 kcal/mol. The result for TCTGTCACGTGGTTTC reads 0.12 kcal/mol; that for GTACCCACGTGGGGGT, -0.12 kcal/mol; that for ATGTCCACGTGGGCTG, -0.06 kcal/mol. The result for TATTCCACGTGGCGTT reads 0.07 kcal/mol; that for AGGGACACGTGGGCGT, -0.22 kcal/mol; that for AAAGTCACGTGAGGAA, 0.6 kcal/mol. The value for ACGTGCACGTGTTATT was -0.14 kcal/mol. ATCTTCACGTGTGATG: the “relative binding free energy” value was 0.44 kcal/mol.

Regarding GATTTCACGTGCTTTT, the “relative binding free energy” value came to 0.21 kcal/mol. The result for TGGGCCACGTGCGTAG reads -0.21 kcal/mol; that for TAGTGCACGTGAGCGA, 0.17 kcal/mol; that for AGTTGCACGTGGTTTG, 0 kcal/mol. The value for CCGAGCACGTGGGTGG was -0.34 kcal/mol; that for TGTGTCACGTGGCGCT was 0.05 kcal/mol; that for TATGACACGTGGGTCG was -0.24 kcal/mol. As for CGTGGCACGTGGATGA, the “relative binding free energy” value came out at 0.03 kcal/mol. On to AGCGGCACGTGGGTAA, for which the “relative binding free energy” value is -0.3 kcal/mol. Take GAGGTCACGTGTGGGC: the “relative binding free energy” value was 0.22 kcal/mol.

Regarding CTTAACACGTGATGGG, the “relative binding free energy” value was found to be 0.07 kcal/mol.

GTTGGCACGTGCGTGT: the “relative binding free energy” value is -0.07 kcal/mol. The result for TTTTTCACGTGCAGGA reads 0.41 kcal/mol; that for ACGGTCACGTGGTGAA, -0.01 kcal/mol; that for TTAGGCACGTGAATGG, 0.16 kcal/mol. The result for GCTAGCACGTGGGAGT reads 0 kcal/mol; that for CGCTTCACGTGGGGGG, 0.04 kcal/mol; that for TTGGCCACGTGATGAG, 0.06 kcal/mol. Take ATGATCACGTGTGGAA: the “relative binding free energy” value was 0.11 kcal/mol. GTTAACACGTGGTACG: the “relative binding free energy” value worked out at 0.01 kcal/mol. Take GGTGTCACGTGACAGA: the “relative binding free energy” value came to 0.35 kcal/mol.

Turning to TGGCGCACGTGGGATC, the “relative binding free energy” value was -0.08 kcal/mol. In the case of GGCTTCACGTGTTTTT, the “relative binding free energy” value turned out to be 0.41 kcal/mol.

As to ATCTGCACGTGATGGT, the “relative binding free energy” value was -0.03 kcal/mol.

Turning to GGGGCCACGTGTTGTG, the “relative binding free energy” value was -0.08 kcal/mol.

On to CTTTCCACGTGTTGGG, for which the “relative binding free energy” value amounted to 0.19 kcal/mol. Consider TATTACACGTGGTTAG, for which the “relative binding free energy” value came out at 0.04 kcal/mol. On to TGTGTCACGTGGTACT, for which the “relative binding free energy” value was determined as 0 kcal/mol. Regarding ATCTGCACGTGAGTTG, the “relative binding free energy” value turned out to be 0.2 kcal/mol. As for AAAGGCACGTGGAGGC, the “relative binding free energy” value was -0.02 kcal/mol. For the sequence GTTGGCACGTGAATGC, the “relative binding free energy” value worked out at 0.16 kcal/mol.

Turning to GTAGTCACGTGTTGAA, the “relative binding free energy” value came to 0.14 kcal/mol. The result for TGTTTCACGTGTGAAG reads 0.37 kcal/mol.

Turning to TATTGCACGTGAACGT, the “relative binding free energy” value is -0.01 kcal/mol. In the case of ACTGGCACGTGGTGGA, the “relative binding free energy” value is -0.1 kcal/mol. The result for GGGTTCACGTGAGAGG reads 0.5 kcal/mol; that for TTAGGCACGTGGGAGA, -0.17 kcal/mol; that for AACGACACGTGGGGTA, 0.02 kcal/mol. The value for TTCGTCACGTGTTATT was 0.06 kcal/mol.

Turning to TAAGGCACGTGTTAGT, the “relative binding free energy” value was -0.1 kcal/mol. Take GTATTCACGTGTCGCT: the “relative binding free energy” value amounted to 0.27 kcal/mol. The value for CGTATCACGTGGAGCG was 0.05 kcal/mol; that for ATTCACACGTGGGCGG was -0.12 kcal/mol; that for GTTATCACGTGTGAAT was 0.36 kcal/mol. The value for ATTGTCACGTGTATAC was 0.03 kcal/mol. The value for AAGGGCACGTGTGTCT was -0.1 kcal/mol; that for GGAATCACGTGCGGGC was 0.16 kcal/mol; that for GAGTGCACGTGTAGGG was 0.05 kcal/mol.

Turning to TCGGGCACGTGTCGGT, the “relative binding free energy” value was 0.05 kcal/mol.

On to TAGAGCACGTGAGGTT, for which the “relative binding free energy” value is 0.13 kcal/mol. ATAGTCACGTGGTTAC: the “relative binding free energy” value came to 0.02 kcal/mol. Regarding GGTCTCACGTGGTAGG, the “relative binding free energy” value amounted to 0.13 kcal/mol. The result for CGTGTCACGTGAGGGT reads 0.24 kcal/mol; that for TAATTCACGTGAGCTT, 0.25 kcal/mol; that for GACGTCACGTGGATTG, 0.27 kcal/mol. TGGTACACGTGTACAG: the “relative binding free energy” value amounted to 0.02 kcal/mol. The result for ATGGGCACGTGGATGC reads -0.09 kcal/mol. Consider GGGTGCACGTGCAGGT, for which the “relative binding free energy” value was -0.05 kcal/mol. Turning to GGATTCACGTGTAAGC, the “relative binding free energy” value came out at 0.46 kcal/mol. As to CTGGTCACGTGTTAAT, the “relative binding free energy” value was -0.03 kcal/mol. The value for GTTTTCACGTGAGATA was 0.43 kcal/mol; that for ATCTTCACGTGAGTTG was 0.23 kcal/mol. As for GGTGGCACGTGGCGTT, the “relative binding free energy” value was -0.05 kcal/mol. As to ACGTTCACGTGTTTAG, the “relative binding free energy” value came out at 0.14 kcal/mol. The value for AGATTCACGTGAGGGA was 0.35 kcal/mol; that for TGTTACACGTGGCGAT was -0.08 kcal/mol.
